In the antibiotic and cytotoxicity screens of Wong et al. (2023):
The list shows a part of the results.

Each molecule was assayed on HSkMC (human skeletal muscle cells) (assay: cytotoxicity call (relative viability < 0.9)). Conditions: 10 µM.
For `CCN(CC)C(=O)c1ccc[n+](CC(N)=O)c1`, the cytotoxicity call was “inactive”.
For `COc1cc(CN2C(=O)[C@@H]3[C@H]4C(=O)O[C@@H](c5ccccc5)[C@H](C)N(C)C(=O)CC/C=C\CN(Cc5ccccc5)C(=O)[C@H]2[C@]32C=C[C@@H]4O2)ccc1O[SiH](C(C)C)C(C)C`, the cytotoxicity call was “inactive”.
In the case of `Cc1cccc(/C=N/Nc2cc(N3CCOCC3)n3nc(-c4ccncc4)cc3n2)c1`, the cytotoxicity call is reported as “inactive”.
For `Nc1ncnc2c1ncn2CCO`, the cytotoxicity call was “inactive”.
With `CN[C@H]1[C@@H](O[C@H]2[C@@H](O[C@H]3[C@@H](O)[C@@H](O)[C@@H](NC(=N)N)[C@@H](O)[C@@H]3NC(=N)N)O[C@@H](C)[C@@]2(O)C=O)O[C@@H](CO)[C@@H](O)[C@@H]1O.CN[C@H]1[C@@H](O[C@H]2[C@@H](O[C@H]3[C@@H](O)[C@@H](O)[C@@H](NC(=N)N)[C@@H](O)[C@@H]3NC(=N)N)O[C@@H](C)[C@@]2(O)C=O)O[C@@H](CO)[C@@H](O)[C@@H]1O.O=S(=O)(O)O.O=S(=O)(O)O.O=S(=O)(O)O` the cytotoxicity call was “inactive”.
`CC(C)CC#Cc1cnc2c(c1)C(=O)N([C@H](C)CO)C[C@H](C)[C@@H](CN(C)C(=O)c1ccc3c(c1)OCO3)O2` was tested, and the cytotoxicity call was “inactive”.
With `COCC#Cc1ccc2c(c1)O[C@@H](CN(C)S(C)(=O)=O)[C@H](C)CN([C@H](C)CO)S2(=O)=O` the cytotoxicity call was “inactive”.
With `COc1ccc(S(=O)(=O)Nc2cccc3c2O[C@H](CN(C)C(=O)Nc2c(C)noc2C)[C@@H](C)CN([C@H](C)CO)C3=O)cc1` the cytotoxicity call was “inactive”.
In the case of `C[C@H](CO)N1C[C@H](C)[C@@H](CN(C)CC2CCOCC2)Oc2ncc(C#Cc3ccc(F)cc3)cc2C1=O`, the cytotoxicity call is reported as “inactive”.
`C[C@H]1CN([C@@H](C)CO)C(=O)c2cc(C#CC3(O)CCCC3)cnc2O[C@@H]1CN(C)S(=O)(=O)c1cccc(F)c1` was tested, and the cytotoxicity call was “inactive”.
For `C[C@H](CO)N1C[C@H](C)[C@H](CN(C)Cc2ccncc2)Oc2ccc(NS(=O)(=O)c3cn(C)cn3)cc2C1=O`, the cytotoxicity call was “inactive”.
`COc1cccc(NC(=O)N[C@H]2CC[C@@H](CC(=O)N3CCOCC3)O[C@H]2CO)c1` was tested, and the cytotoxicity call was “inactive”.
In the case of `O=C(C[C@H]1CC[C@@H]2[C@H](COC[C@H](O)CN2S(=O)(=O)c2cccc(Cl)c2)O1)NC1Cc2ccccc2C1`, the cytotoxicity call is reported as “inactive”.
With `C[C@H]1CN([C@@H](C)CO)C(=O)c2c(c3ccccc3n2C)-c2ccccc2CO[C@@H]1CN(C)Cc1ccc(O)cc1` the cytotoxicity call was “inactive”.
With `Cc1ccccc1NC(=O)Nc1ccc(CC(=O)N(C)[C@@H](CC(C)C)C(=O)NCC[C@H](NC(=O)[C@@H]2CCCN2S(=O)(=O)c2cc(Cl)cc(Cl)c2)C(=O)O)cc1` the cytotoxicity call was “inactive”.
For `C[C@@H]1CN([C@H](C)CO)S(=O)(=O)c2ccc(C#C[C@@H](C)O)cc2O[C@@H]1CN(C)C(=O)Nc1ccccc1`, the cytotoxicity call was “inactive”.
In the case of `C[C@H](CO)N1C[C@H](C)[C@@H](CN(C)C(=O)Cc2ccccn2)Oc2cc(C#C[C@@H](C)O)ccc2S1(=O)=O`, the cytotoxicity call is reported as “inactive”.
For `C[C@@H]1CCCCO[C@@H](CN(C)C(=O)CCC(F)(F)F)[C@@H](C)CN([C@H](C)CO)C(=O)c2cc(NC(=O)C3CCCCC3)ccc2O1`, the cytotoxicity call was “inactive”.
For `COc1ccccc1C#Cc1cnc2c(c1)C(=O)N([C@H](C)CO)C[C@@H](C)[C@@H](CN(C)C(=O)c1ccc3c(c1)OCO3)O2`, the cytotoxicity call was “inactive”.
For `C=CCOC(=O)[C@H]1[C@@H]2C(=O)O[C@@H](c3ccccc3)[C@@H](c3ccccc3)N2[C@@H](c2ccc(OCCOC(=O)NCCCCCC(=O)NO)cc2)[C@@]12C(=O)Nc1ccc(I)cc12`, the cytotoxicity call was “inactive”.
With `C[C@@H]1CN([C@@H](C)CO)C(=O)Cc2cc(NC(=O)Nc3ccc(F)cc3)ccc2O[C@@H]1CN(C)Cc1ccc(-c2ccccc2)cc1` the cytotoxicity call was “inactive”.
In the case of `CCNC(=O)C[C@H]1CC[C@H]2[C@@H](COc3ccc(NS(=O)(=O)c4ccccc4C)cc3C(=O)N2C)O1`, the cytotoxicity call is reported as “inactive”.
In the case of `Cn1c(=O)sn(-c2ccccc2)c1=O`, the cytotoxicity call is reported as “inactive”.
For `C[C@@H]1CN([C@H](C)CO)C(=O)c2cc(NC(=O)CCC(F)(F)F)ccc2O[C@@H](C)CCCCO[C@H]1CN(C)Cc1ccccc1`, the cytotoxicity call was “inactive”.
With `C[C@H]1CN([C@@H](C)CO)C(=O)c2cc(C#CC3CCCC3)cnc2O[C@H]1CN(C)C(=O)Cc1ccccn1` the cytotoxicity call was “inactive”.
In the case of `C[C@@H]1CN([C@@H](C)CO)C(=O)Cc2cc(NC(=O)CCN3CCOCC3)ccc2O[C@H]1CN(C)Cc1ccc(C(=O)Nc2ccccc2N)cc1`, the cytotoxicity call is reported as “inactive”.
With `C=C1C(C2(C)C=CC(=O)C(C)(C)C2CC(=O)OC)CCC2(C)C(c3ccoc3)OC(=O)C3OC132` (configuration not stated) the cytotoxicity call was “inactive”.
